# In PubChem BioAssay AID588453 (National Center for Advancing Translational Sciences (NCATS), 2011):
# Where “and” joins values, the source holds several entries; their conditions need not be identical. Equal entries are not always repeated. The whole screen tested about 390,000 compounds, of which about 4,000 (1%) were called active. Inconclusive means that the source gave no clear call. Such entries were picked first, then a sample of the others. The call rests on the fitted dose curve; in most records, active means well fitted inhibition curve with a large enough effect; inconclusive means small, poorly fitted or top-dose-only effect; inactive means no such curve, though single readings can be large or run the other way. Potencies of inconclusive entries are doubtful fits and often do not repeat.
# Target: Thioredoxin reductase 1, cytoplasmic (Rattus norvegicus) (UniProt O89049)
# Assay: qHTS Assay for Inhibitors of Mammalian Selenoprotein Thioredoxin Reductase 1 (TrxR1): qHTS; further: nearly all actives have a fitted effect of over 65% in size
# Details: recombinant rTrxR1, NADPH fluorescence consumption, selenite substrate; series mostly up to 114 µM; activity change, negative = inhibition: at the top concentration
# In short: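 Rat TrxR1 (90 nM in the dispensed reagent) was pre-reduced with 400 uM NADPH for 5 min at room temperature, then incubated with compound for 15 min. After 400 uM selenite was added, NADPH fluorescence (Ex 340/Em 450 nm) was followed for 8 min.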
# On the % scale 0 is the no-effect control and ±100 the full control effect; potency means the concentration at half of the fitted maximal effect; tags describe the fitted curve by direction and shape.
# UniProt O89049, sequence (O89049 whole entry, looked up): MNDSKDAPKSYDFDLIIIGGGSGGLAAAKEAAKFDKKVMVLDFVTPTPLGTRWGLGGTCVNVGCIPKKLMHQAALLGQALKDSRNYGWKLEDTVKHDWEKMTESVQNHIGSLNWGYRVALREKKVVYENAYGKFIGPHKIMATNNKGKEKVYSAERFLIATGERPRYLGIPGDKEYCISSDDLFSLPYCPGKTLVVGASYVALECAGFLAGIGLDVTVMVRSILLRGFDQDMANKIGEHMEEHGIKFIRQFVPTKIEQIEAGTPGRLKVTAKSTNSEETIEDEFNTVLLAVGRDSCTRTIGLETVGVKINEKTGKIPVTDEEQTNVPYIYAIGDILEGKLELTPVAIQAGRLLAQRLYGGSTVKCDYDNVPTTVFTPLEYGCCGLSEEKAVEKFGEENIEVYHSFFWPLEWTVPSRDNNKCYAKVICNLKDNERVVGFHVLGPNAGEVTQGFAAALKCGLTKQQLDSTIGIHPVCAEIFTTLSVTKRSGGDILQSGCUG
SMILES,Potency,"activity change, negative = inhibition"
O=C(NC(=S)Nc1ccccc1OC(F)F)c1ccc2c(c1)OCO2,"inconclusive: 39.8 µM [inhibitor, partial curve]",
CCN(CC)CCN1C(=O)C(O)=C(C(=O)c2ccc(C)o2)C1c1ccccn1 (stereo unspecified),"inconclusive: 25.1 µM [inhibitor, single point]",
Cc1cc(C)nc(SCNC(=O)c2ccc(Cl)cc2)n1,"inconclusive: 2 µM [inhibitor, full curve]",
Nc1ccc(-c2nc3ccc(N)cc3o2)cc1,active: 79.4 µM,
CCOC(=O)c1ccc2ncc(C(=O)OCC)c(NCc3ccco3)c2c1,"inconclusive: 89.1 µM [inhibitor, partial curve, poor fit]",
Cc1ccc(C(=O)Oc2cc(N)n(S(=O)(=O)c3ccc(F)cc3)n2)cc1,,inactive: -12.1%
Cc1[nH]c2ccccc2c1C(c1c[nH]c2ccccc12)c1c(C)[nH]c2ccccc12,"inconclusive: 79.4 µM [inhibitor, single point]",
Cn1cnc([N+](=O)[O-])c1Sc1nc(N)nc2c1ncn2C1CC(O)C(CO)O1 (stereo unspecified),"inconclusive: 3.16 µM [inhibitor, single point]",
CCC(=O)[C@@]1(C)[C@H](C)C[C@H]2[C@@H]3CCC4=CC(=O)C=C[C@]4(C)[C@H]3[C@@H](O)C[C@@]21C,,inactive: 3.06%
Cc1ccc(C(=O)Nc2ccc(S(=O)(=O)O)c3cc(S(=O)(=O)O)cc(S(=O)(=O)O)c23)cc1NC(=O)c1cccc(NC(=O)Nc2cccc(C(=O)Nc3cc(C(=O)Nc4ccc(S(=O)(=O)O)c5cc(S(=O)(=O)O)cc(S(=O)(=O)O)c45)ccc3C)c2)c1,"inconclusive: 9.47 µM [inhibitor, partial curve, poor fit] and inconclusive: 14.1 µM [inhibitor, partial curve]",
C=CCSc1nnc2c(n1)-c1cccc3cccc-2c13,"inconclusive: 0.126 µM [inhibitor, full curve, poor fit]",
COc1ccc(/C=C2/C(=O)N(c3ccccc3)N=C2C)c(OC)c1,"inconclusive: 56.2 µM [inhibitor, partial curve, poor fit]",
Cc1nc(SC2CC(=O)N(c3ccccc3)C2=O)n[nH]1 (stereo unspecified),"inconclusive: 8.91 µM [inhibitor, partial curve, poor fit]",
CC(C)c1ccccc1NC(=O)COC(=O)CCN1C(=O)/C(=C\C=C\c2ccccc2)SC1=S,,inactive: 7% [at 57.1 µM]
NC(CSCc1cccc(Br)c1)C(=O)O (stereo unspecified),"inconclusive: 79.4 µM [inhibitor, partial curve]",
Cc1ccccc1NC(=O)c1nc(S(C)(=O)=O)ncc1Cl,"inconclusive: 22.4 µM [inhibitor, full curve, poor fit]",
CCCCNc1c(-c2cccc(-c3ccc(OC)cc3)c2)nc2cc(C)ccn12,,inactive: 41.5% [at 57.1 µM]
COc1cc(NS(C)(=O)=O)c(OC)cc1NC(=O)c1ccccc1,,inactive: -9.29%
COc1cccc(NS(=O)(=O)c2ccc3c(c2)C2C=CCC2C(c2ccc(C(=O)O)cc2)N3)c1 (stereo unspecified),active: 39.8 µM,
CC1C(C)N(C(=O)CCl)c2ccccc2N1C(=O)CCl (stereo unspecified),"inconclusive: 5.62 µM [inhibitor, full curve, poor fit]",
COC/C=C/C1=CC2=CC(=O)C(C)(OC(=O)c3cnc4ccccc4n3)C(=O)C2=CN1c1ccccc1 (stereo unspecified),"inconclusive: 44.7 µM [inhibitor, partial curve, poor fit]",
Cc1nn(-c2ccccc2)c(N2CCCC2)c1/C=N/n1cnc2scc(-c3ccccc3)c2c1=O,"inconclusive: 70.8 µM [inhibitor, partial curve] and inconclusive: 89.1 µM [inhibitor, single point]",

SMILES,Potency,"activity change, negative = inhibition"
CCCCS(=O)(=O)c1oc(-c2cccs2)nc1S(=O)(=O)c1ccccc1,active: 0.447 µM,
COc1ccc(C(=O)Nc2ccc(-c3ccc(C)o3)cc2)cc1S(=O)(=O)N1CCOCC1,"inconclusive: 28.2 µM [inhibitor, single point]",
O=C(NCCCN1CCCCCC1)c1ccc(CS(=O)(=O)Cc2ccccc2F)o1,"inconclusive: 79.4 µM [inhibitor, single point]",
COc1ccc(/C=C(\C#N)C(=O)OCC(=O)N(C)C2CCS(=O)(=O)C2)cc1 (stereo unspecified),"inconclusive: 20 µM [inhibitor, partial curve, poor fit]",
CCn1c(C)nc2cc(C(=O)N/N=C(\C)c3ccc(OC)cc3O)ccc21,,inactive: 16.4% [at 57.1 µM]
COCCCn1c(SCC(=O)Nc2cccc(C)n2)nnc1-c1ccco1,"inconclusive: 3.16 µM [inhibitor, full curve]",
Nc1c(Cl)cc(C=O)cc1Cl,,inactive: -0.439%
C/C(CC(=O)Nc1ccc(F)cc1)=N\NC(=O)COc1ccccc1,"inconclusive: 70.8 µM [inhibitor, partial curve]",
CN(C)c1ccc(C(=O)n2nnc3ccccc32)cc1,"inconclusive: 17.8 µM [inhibitor, partial curve, poor fit]",
CCCCCC(=O)NC(=S)Nc1ccc2oc(=O)ccc2c1,"inconclusive: 14.1 µM [inhibitor, partial curve, poor fit]",
CC1=NC2(CCCc3c2no[n+]3[O-])N(O)C1(C)C (stereo unspecified),"inconclusive: 39.8 µM [inhibitor, single point]",
CC1CC(=NNC(=O)C2COc3ccccc3O2)CC(C)(C)C1 (stereo unspecified),,inactive: 18.3%
N=C1SC(CC(=O)Nc2ccc([N+](=O)[O-])cc2)C(=O)N1c1ccccc1 (stereo unspecified),,inactive: 19.6% [at 11.4 µM]
COc1cc(-c2nnc3sc(-c4ccncc4)nn23)cc(OC)c1OC,,inactive: -0.241%
O=C(Nc1nc2ccc(S(=O)(=O)N3CCCC3)cc2s1)c1ccccn1,"inconclusive: 79.4 µM [inhibitor, single point]",
COc1ccc(-c2nc(CSCC(=O)N3CCN(c4cccc(C)c4C)CC3)c(C)o2)cc1OC,,inactive: 8.74% [at 57.1 µM]
Cc1ccc2nc(-c3ccccc3F)c(Nc3ccc(Cl)cc3)n2c1,,inactive: 15.3%
CC(=O)N(Cc1ccc(F)cc1)c1cccc(C)c1C,,inactive: 24.4% [at 57.1 µM]
CCOC(=O)/C(=C\c1cccnc1)C(=O)c1cc(C(C)=O)c(Nc2ccccc2)s1,active: 3.16 µM,
CCCCNC(=O)c1nn(-c2ccc(CC)cc2)nc1CO,,inactive: 21.6%
Cc1cccc(NC2=C(NCCO)C(=O)c3ccccc3C2=O)c1,,inactive: 37.1% [at 57.1 µM]
Cc1ccc(-c2ccc(C(=O)NCc3ccccc3)o2)c2ccccc12,"inconclusive: 89.1 µM [inhibitor, single point]",

SMILES,Potency,"activity change, negative = inhibition"
CC(C)CNC(=O)c1cccc(C(=O)NCC(C)C)c1,,inactive: 20.5%
COc1ccc(/C=C(\NC(=O)/C=C/c2ccco2)C(=O)NCCc2nc3ccccc3[nH]2)cc1,"inconclusive: 56.2 µM [inhibitor, partial curve]",
COC(=O)c1ccccc1NC(=S)NC(=O)c1ccc2ccccc2c1,"inconclusive: 17.8 µM [inhibitor, partial curve]",
CC1CCN(c2c(NCc3ccc(C(=O)N4c5ccccc5CC4C)cc3)c(=O)c2=O)CC1 (stereo unspecified),"inconclusive: 100 µM [inhibitor, single point]",
Cc1cccc(CCNC(=O)CCc2c(C)nc3c4c(C)cc(C)nc4nn3c2C)c1,"inconclusive: 39.8 µM [inhibitor, partial curve, poor fit]",
Cc1nc(CCNC(=O)CC2C(=O)NCCN2Cc2ccccc2)nc2c1CCC2 (stereo unspecified),"inconclusive: 79.4 µM [inhibitor, partial curve]",
CCCc1nnc(NC(=O)c2nc(S(=O)(=O)Cc3cccc(C)c3)ncc2Cl)s1,"inconclusive: 1.12 µM [inhibitor, partial curve, poor fit]",
Oc1ccc(N=Cc2sc3ccccc3c2Cl)cc1,"inconclusive: 89.1 µM [inhibitor, single point]",
C=C1CCN(C(Cc2ccccc2)C(=O)NC2CCN(Cc3ccccc3)CC2)S(=O)(=O)c2ccccc21 (stereo unspecified),"inconclusive: 39.8 µM [inhibitor, single point]",
COc1ccc(CN(C(=O)c2nsc(Cl)c2Cl)C(C(=O)NC2CCCC2)c2ccc(OC)cc2)cc1 (stereo unspecified),"inconclusive: 39.8 µM [inhibitor, single point]",
Oc1ccc(/C=N/NC(=S)N2CCOCC2)cc1,,inactive: -38.3%
CC(=O)c1ccc(NC(=O)c2ccc(-c3ccc(Cl)cc3)o2)cc1,"inconclusive: 56.2 µM [inhibitor, partial curve, poor fit]",
CN1C2CCC1CC(NS(=O)(=O)c1ccc(C#N)cc1)C2 (stereo unspecified),,inactive: 21.9%
O=C(Nc1ccc2c(c1)nc1n2CCN(C2CCCCC2)C1)c1ccco1,"inconclusive: 79.4 µM [inhibitor, single point]",
COc1ccc(Nc2cc(C)c3ccccc3n2)cc1,,inactive: 3.15%
CCC(=O)NNC(=S)NC(=O)c1ccc(C)cc1,"inconclusive: 15.8 µM [inhibitor, partial curve, poor fit]",
O=C(Oc1cccnc1)c1cc(S(=O)(=O)N2CCCCC2)ccc1Cl,"inconclusive: 44.7 µM [inhibitor, single point]",
Oc1c(CNc2ccccc2)cc(COCc2ccccc2)c2cccnc12,"inconclusive: 39.8 µM [inhibitor, partial curve]",
Cc1nn(CC(=O)N/N=C/c2cccs2)c(C)c1[N+](=O)[O-],,inactive: 13.2% [at 57.1 µM]
C[C@H]1CN([C@@H](C)CO)C(=O)c2cc(NC(=O)C3CCCCC3)ccc2O[C@H]1CN(C)CC1CCCCC1,,inactive: 2.04%
CCN(CC)S(=O)(=O)c1cc(NC(=O)CSCc2c(C)noc2C)ccc1C,"inconclusive: 89.1 µM [inhibitor, single point]",
Cc1c2ccccc2nc2c(F)c(NCCO)c(F)c(F)c12,"inconclusive: 31.6 µM [inhibitor, partial curve]",
